Our source for the self-cleavage values is the RNAGym collection of RNA variant scans (doi:10.7554/elife.90254).

B1: LINE1-mini (parent)
chain: GGCAGAGCUCAACACAGCGUGGCAAAGUGGCUGUGGCUAGACUGCC

The source gives no read counts; variants with many changes may rest on few reads.

The variants in this data set derive from B1. Put plainly: self-cleavage, relative activity (ratio to wild type); higher = more cleavage; in vitro, sequencing; the parent is a self-cleaving ribozyme.
On to GGCAGGGCUCAACACAGCGUGGCAAGGUGGCUGUGGUUAGACUGCG [A6G A26G C37U C46G], for which the self-cleavage came to 0.
Next, GGCAGGGCUCAACACGGCGAGGUAAAGUGGCUGUGGCUAGACUGCC [A6G A16G U20A C23U]: 0.12; GGCAGGGCUCCACACAGCGUUGCAAAGUGGCUGUGGCUAGACUGCC [A6G A11C G21U]: 0.05.
Next, GGCAGGGCUCAACACGUCGUGGCAAAGUGGCUGUGGCUAGACUGCC [A6G A16G G17U]: 0.26; GGCAGGGCUCAGCACAGCGUGGCAAAAUGGCUGUGGCUAGACUGCC [A6G A12G G27A]: 0.02; GGCAGGGCUCAGCACAGCGUGGCAAAGUGGUUGUGGCUAGACUGCC [A6G A12G C31U]: 0.06.
In the case of GGCAGGGAUCAACACAGCGUGGCAAAGCGGCUGUUGCUAGACUGCC [A6G C8A U28C G35U], the self-cleavage turned out to be 0.03.
On to GGCAGGGCUCGACACAGCGUGGCAAAGUGGCUGUGGCCAGACUGCC [A6G A11G U38C], for which the self-cleavage amounted to 0.
The figure for GGCAGGGCUCAACACUGAGUGGCAUACUGGCUGCGGCUAGACUGCC [A6G A16U C18A A25U G27C U34C] is 0.1; for GGCAGGGGUCAACACAACGUGGCAAAGUGGCUGUAGCUAGCCUGAC [A6G C8G G17A G35A A41C C45A] it is 0.01; for GGCAGGGUUCAACACAGUGUGACAAAGUGGCGGUGGCUAGACUGCU [A6G C8U C18U G22A U32G C46U] it is 0.06.
Next, GGCAGGGCUCUACACAGCGUGGCAAAGUGGCUGUGGCUAGACUCCC [A6G A11U G44C]: 0; GGCAGGGCUCAACACUGCUUGGCAAAGUGGCUCUGGCUAAACCGCC [A6G A16U G19U G33C G40A U43C]: 0.
GGCAGGGCUCCACACAGCGUGUCAAAGUGGCUGUGGCUAGACUGCC [A6G A11C G22U]: the self-cleavage turned out to be 0.01.
Turning to GGCAGGGCUCAGCACAGCGUAGCAAAGUGGCUGUGGGUAGACUGCC [A6G A12G G21A C37G], the self-cleavage was found to be 0.02.
Next, GGCAGGGGUCAACACAGCGUGGCAAAGUGGCUGUUGCUAGACUACC [A6G C8G G35U G44A]: 0.03; GGCAGGGGUCAACACAGCGUUGCAAAGUGGCUGUGGCUAGACUGCC [A6G C8G G21U]: 0.04.
As to GGCAGGGCUCACCCUAGCGUGGCAAAGUGGCUGUGGCUAGAUUGCC [A6G A12C A14C C15U C42U], the self-cleavage was 0.06.
On to GGCAGCGCUCAACACAGCGUGGCAAAGUGGCCGUGGCCACACUGCC [A6C U32C U38C G40C], for which the self-cleavage amounted to 0.19.
Next, GGCAGGGCUCAACACUGCGUGUCAAAGUGAUUGUGGCUAGACUGCA [A6G A16U G22U G30A C31U C46A]: 0.05; GGCAGGGCUCAUCACAGCGUGGCAAAGUGGCUGUGGUGAGACUGCC [A6G A12U C37U U38G]: 0; GGCAGGGUUCAACAAAACGUGGCAAAGUGGCUGUGGCUAGACUGCC [A6G C8U C15A G17A]: 0.02.
As to GGCAGCGCUCAACACAGCGUGGCAAAGGGGCUGUCGCUAGACUGCC [A6C U28G G35C], the self-cleavage worked out at 0.02.
The figure for GGCAGCGCUCAACACAGCGCGGCAAAGUGGCUAUGGCUAGACUGCC [A6C U20C G33A] is 0.02; for GGCAGGGCUCGACAAAGCGUGGCAAAGUGGCUGAGGCUAGACUGCC [A6G A11G C15A U34A] it is 0.03; for GGCAGGGCUCAACACAGCGUGGCCAAGUGGCUGUGGCUAGUCUGCC [A6G A24C A41U] it is 0.06.
The figure for GGCAGGGCUCAACUCAGCGUUGCAAAGUGGCUGUGGCUAGACUGCC [A6G A14U G21U] is 0.16.
Turning to GGCAGGGAUCAACACAGCGUGGCAAAGUGGCUGUGACUAGACUGCC [A6G C8A G36A], the self-cleavage came out at 0.05.
For GGCAGCGCUCAACACAGCGUGGCAAAGUGGCUGUGGCGACAGUGCC [A6C U38G G40C C42G], the self-cleavage was determined as 0.02.
Next, GGCAGGGUUCAACACAGAGUGGCAAAGUGGCUAUGGCUAGACUGCC [A6G C8U C18A G33A]: 0.28; GGCAGCGCUCAACACAGCGUGGCAAAGUGGCGGGGGCUAGACUGCC [A6C U32G U34G]: 0.02; GGCAGGGCUCAACCCAGAGUGGCAAACUGGCUGUGGCUAGACUGCC [A6G A14C C18A G27C]: 0.04.
Next, GGCAGGGCUCAACACUGCUUUGCAAAGUGGCUGUGGCUAGACUGCC [A6G A16U G19U G21U]: 0.02.
On to GGCAGGGAUCAACACAGCGUGGCAAAGUGGCUGGGGCUAGACUGCC [A6G C8A U34G], for which the self-cleavage is 0.56.
The figure for GGCAGGGAUCAACACAGCGUGGCAAAGUGGCUUUGGCUAGACUGCC [A6G C8A G33U] is 0.21; for GGCAGGGCUCAACACUGCGUGGCAAAAUGGCUGUGGCUAGACUGCC [A6G A16U G27A] it is 0.07; for GGCAGGGCUCUACACAGCGUGGCAAAGUGUCUGUGGCUAGACUGCC [A6G A11U G30U] it is 0.01.
As to GGCAGGGCUCAACCCAACGUGGCAAAGUGGCUGUGGCUAGAGUGCG [A6G A14C G17A C42G C46G], the self-cleavage turned out to be 0.01.
With GGCAGCGCUCAACACAGCGGGGCAAAGUGGGUGUGGCUAGACUGCC [A6C U20G C31G], the self-cleavage worked out at 0.04.
The figure for GGCAGGGUUCAACGCAGCGUGGCAAAGUGGCUGUGGCUAGACUGCC [A6G C8U A14G] is 0.15.
The figure for GGCAGGGCUCAUCACAGCGUGGCAAAGUGGCUGUGGCUAGACUGUC [A6G A12U C45U] is 0.1.
Next, GGCAGGGCUCAACUCAGCGUGGUAAAGUUGGUGUGGCUAGACUGCC [A6G A14U C23U G29U C31G]: 0.02.
For GGCAGGGCUCACCACAGCGUGGCGAAGUGACUGUGGCUAGACUGCC [A6G A12C A24G G30A], the self-cleavage was 0.01.
Regarding GGCAGGGGUCAAGACGGCGUGGCAAAGUGGCUGUGGCUAGAAUGCC [A6G C8G C13G A16G C42A], the self-cleavage was determined as 0.03.
The figure for GGCAGGGCUCAACACAGCGUGGCAAGGUGGAUGUGUCUAGACAGCC [A6G A26G C31A G36U U43A] is 0.02; for GGCAGGGCUCAACACUGCGUGGCAAAGUGGCGGUGGCUAGGCCGCC [A6G A16U U32G A41G U43C] it is 0.02.
Next, GGCAGGGGUCAACACAGCGUGGUAAAGUGUCUGUGGCUAGACUGCC [A6G C8G C23U G30U]: 0.07; GGCAGGGAUCAACACAGAGUGGCAAAGUGGCUGUGGCUAGACUGCC [A6G C8A C18A]: 0.29; GGCAGCGCUCAACACAGCGGGGCAAAGUGGCAGUGGCUUAACUGCC [A6C U20G U32A A39U G40A]: 0.07.
Next, GGCAGGGUUCAAGACAGCGUGGCAAAGUGGCUGUGGGUAGACUGCC [A6G C8U C13G C37G]: 0.01; GGCAGCGCUCAACACAGCGUGGCAAAGUGGCGGUGGCCAGACUGCC [A6C U32G U38C]: 0.01; GGCAGGGCUCAACACAGCGUGGCAAAGUGGCUGUGGCUAGGCUACC [A6G A41G G44A]: 0.01.
GGCAGGGUUCAAUACAGCGGUGCAACGUGGCUGUGGCUAGACUGCC [A6G C8U C13U U20G G21U A26C]: the self-cleavage was 0.02.
With GGCAGGGCUCAACACGGCGUGGCAAAGUGGGUAUGGCUAGACUGCC [A6G A16G C31G G33A], the self-cleavage came to 0.
On to GGCAGGGGUCAUCACAGCAUGACAAAGUGGCUGUGGCUAGACUGCC [A6G C8G A12U G19A G22A], for which the self-cleavage was found to be 0.02.
Turning to GGCAGGGCUCACCACAGCCUGGCAAAGUGGCUGUUGCUAGACUGCC [A6G A12C G19C G35U], the self-cleavage was 0.02.
